In article PMC4336329 (PLoS ONE, 2015):
Hit rate of the full screen: of about 310,000 compounds, about 2,200 (0.71%) showed an effect of 50% or more. Effects have a minus sign here. This is one part of the list.

Each compound was assayed against human ether-à-go-go-related gene (hERG) potassium channel (human, UniProt Q12809) (assay: primary screen, population patch clamp on CHO cells stably expressing hERG).
human ether-à-go-go-related gene (hERG) potassium channel, sequence (Q12809 whole entry, looked up): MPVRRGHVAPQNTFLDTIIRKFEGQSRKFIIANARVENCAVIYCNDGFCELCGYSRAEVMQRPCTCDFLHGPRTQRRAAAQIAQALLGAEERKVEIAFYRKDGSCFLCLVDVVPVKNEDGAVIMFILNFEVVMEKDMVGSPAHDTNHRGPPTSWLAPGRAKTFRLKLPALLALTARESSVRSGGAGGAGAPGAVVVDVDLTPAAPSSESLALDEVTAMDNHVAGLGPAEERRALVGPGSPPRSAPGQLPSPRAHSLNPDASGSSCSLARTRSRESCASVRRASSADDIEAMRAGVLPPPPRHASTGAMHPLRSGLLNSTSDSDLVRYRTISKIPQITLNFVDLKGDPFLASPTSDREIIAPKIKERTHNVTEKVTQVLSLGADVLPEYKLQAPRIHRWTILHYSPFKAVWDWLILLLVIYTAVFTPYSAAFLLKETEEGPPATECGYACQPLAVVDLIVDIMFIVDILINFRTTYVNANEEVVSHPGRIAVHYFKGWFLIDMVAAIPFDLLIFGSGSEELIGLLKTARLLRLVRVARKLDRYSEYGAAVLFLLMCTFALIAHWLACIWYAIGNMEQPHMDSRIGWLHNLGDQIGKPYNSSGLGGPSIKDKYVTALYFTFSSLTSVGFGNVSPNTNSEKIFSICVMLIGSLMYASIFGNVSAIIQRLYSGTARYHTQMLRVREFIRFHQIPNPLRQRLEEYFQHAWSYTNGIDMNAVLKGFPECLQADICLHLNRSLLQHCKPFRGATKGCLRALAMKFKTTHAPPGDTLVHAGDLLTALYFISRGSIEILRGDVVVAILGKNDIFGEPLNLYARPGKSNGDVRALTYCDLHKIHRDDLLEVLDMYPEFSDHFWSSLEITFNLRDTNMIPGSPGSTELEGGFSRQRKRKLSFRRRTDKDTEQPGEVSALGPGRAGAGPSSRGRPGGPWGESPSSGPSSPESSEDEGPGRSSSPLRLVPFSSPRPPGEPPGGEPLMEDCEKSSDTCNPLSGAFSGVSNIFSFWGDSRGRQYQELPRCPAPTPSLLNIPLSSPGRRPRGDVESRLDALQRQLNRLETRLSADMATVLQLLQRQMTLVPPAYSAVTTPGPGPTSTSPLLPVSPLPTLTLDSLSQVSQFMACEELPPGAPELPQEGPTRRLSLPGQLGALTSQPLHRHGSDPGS

Row | SMILES | hERG current change (%, negative = inhibition) at 1uM [%]
1 | Cc1[nH]n(-c2cccc(Cl)c2)c(=O)c1-c1ccccc1 | 13.1
2 | O=C(O)CC1C(=O)OCN1C(=O)OCc1ccccc1 (centres unmarked) | 10.6
3 | c1ccc(-c2cc3ccccc3[nH]2)cc1 | 15.9
4 | COCCN1C(=O)N(c2ccc(Cl)cc2)C(=O)C1CC(=O)Nc1cc(OC)cc(OC)c1 (centres unmarked) | 5.78
5 | O=C(NCc1ccccc1Cl)C1CCN(c2cnccn2)CC1 | 1.71
6 | COc1cc(NC(=O)c2cc3c(Cl)nc4ccccc4c3s2)cc(OC)c1OC | 19
7 | CCOC(=O)c1cc2c(nc1N)CC(C)(C)OC2.Cl | 18.6
8 | O=c1nc(Nc2ccc(Br)cc2)sc2ccc([N+](=O)[O-])cc12 | 12.8
9 | O=C(NC(=S)NN1CCCCC1c1cccnc1)c1ccc(Br)cc1 (centres unmarked) | -2.95
10 | COc1ccc(N2C(=O)CC(Cc3ccc(Br)cc3)C2=O)cc1 (centres unmarked) | 5.64
11 | CCNC(=S)N/N=C(\C)c1ccc2c(c1)OCCO2 | 7.97
12 | COc1ccc(C(=O)NCc2nnc(SCC(=O)NC3CCCC3)o2)cc1 | 21.4
13 | CN(C)S(=O)(=O)c1ccc(S(=O)(=O)Nc2ccc3c(c2)oc2ccccc23)cc1 | 8.27
14 | CC1(C)CC(N=Cc2c(O)n(Cc3ccc4c(c3)OCO4)c(=O)c3ccccc23)CC(C)(C)N1 | 9.73
15 | COc1ccccc1OCCNC(=O)c1cc([N+](=O)[O-])cc([N+](=O)[O-])c1 | 12.1
16 | CC(C)(C)Nc1nc(-c2ccccn2)nc2ccccc12 | 4.44
17 | CCn1c(SCC(=O)NCC2CCCO2)nnc1-c1c[nH]c2ccccc12 (centres unmarked) | 10.2
18 | COc1ccc(S(=O)(=O)CCC(=O)NCCc2ccc(S(N)(=O)=O)cc2)cc1 | 13.1
19 | Cc1ccc2nc(CSc3nc(C)ccc3C#N)[nH]c2c1 | 12.2
20 | Cc1ccc2nc(NC(=O)CCCc3nc4ccccc4s3)sc2c1 | -2.55
21 | CCOC(=O)c1ccc2[nH]c3c(c2c1)CCCC3O (centres unmarked) | 15.9
22 | CCOC(=O)C1CCCN(S(=O)(=O)CCNC(=O)c2ccc3c(c2)OCO3)C1 (centres unmarked) | 16.4
23 | Cc1ccc(/C=N/n2nnnc2N)cc1 | 2.68

Row | SMILES | hERG current change (%, negative = inhibition) at 1uM [%]
24 | COc1ccc(Cl)cc1NC(=O)NCC1CCN(C(=O)OC(C)(C)C)CC1 | 9.08
25 | Cc1cccc(N2C(=O)SC(N(CC(=O)O)c3cccc(C)c3)C2=O)c1 (centres unmarked) | 21.3
26 | Cc1ccc(N(CC(O)COCc2ccco2)S(=O)(=O)c2ccc(C)cc2)cc1 (centres unmarked) | 11.4
27 | COc1ccccc1CNC(=O)C(=O)NCCC1CCCCN1S(=O)(=O)c1ccc(C)cc1 (centres unmarked) | 8.68
28 | COc1ccc(NC(=S)N2CCN(C(=O)c3ccco3)CC2)cc1 | 1.47
29 | CCN(CC)S(=O)(=O)c1ccc(OC)c(NC(=O)c2ccc(-n3cncn3)c([N+](=O)[O-])c2)c1 | 19.6
30 | CCCc1cc(=O)[nH]c(SCC(=O)NCC2COc3ccccc3O2)n1 (centres unmarked) | -4.72
31 | COc1ccc(/C=N/NC(=O)c2cc(C)oc2C)cc1OC | 9.42
32 | CN1CCN(NC(=O)Nc2ccc(Br)cc2Cl)CC1 | 0.741
33 | CC(=O)N1CCC(C(=O)NCCOc2ccc(C)cc2)CC1 | 10.6
34 | CCC(C(=O)NC1CCCCC1)n1c(SCc2ccccc2F)nc2ccncc21 (centres unmarked) | 3.08
35 | O=C(Nc1ccccc1)c1nn(-c2cccc(C(F)(F)F)c2)ccc1=O | 5.94
36 | CC(C)C(NC(=O)OCc1ccccc1)C(=O)N1CCOCCOCCOCC1 (centres unmarked) | 17.2
37 | Cc1ccc(CNC(=O)CO/N=C/c2ccc3c(c2)OCO3)cc1 | 6.67
38 | Cc1ccc(C)c(Nc2nn3c(=O)c4ccc(C(=O)NCc5cccnc5)cc4nc3s2)c1 | 9.24
39 | COc1cccc(OCCn2cccc2/C=C2/C(=N)N3OC(C)=CC3=NC2=O)c1 | 12.3
40 | O=C(c1cccs1)N1N=C(c2ccccc2)CC1c1ccccc1O (centres unmarked) | 17.2
41 | Br.Clc1ccc(-c2cn3cc(Br)ccc3n2)cc1Cl | -1.52
42 | CCOCCN1CCC(OC(C)=O)C(C)C1.Cl (centres unmarked) | 15.1
43 | Cc1ccc2nc(SCC(=O)Nc3ccc(Cl)cc3)nc(=O)n2c1 | 3.35
44 | CSc1ccc(C2CC(=O)Nc3c2c(=O)n(C)c(=O)n3C)cc1 (centres unmarked) | 11.3
45 | CC(=O)Nc1ccc(S(=O)(=O)NNC(=O)COc2ccc(Cl)cc2Cl)cc1 | 14.5
46 | O=C(COC(=O)c1ccc(O)cc1)NC1CCCCCC1 | 7.64

Row | SMILES | hERG current change (%, negative = inhibition) at 1uM [%]
47 | CCOC(=O)c1sc(N)nc1-c1ccccc1 | 3.34
48 | O=S(=O)(Nc1cccc2c1ccc1cccn12)c1cccs1 | -10.3
49 | O=C(O)CCN1C(=O)/C(=C\c2cccc(Oc3ccccc3)c2)SC1=S | 13
50 | O=C1NC2(CCCCCC2)C(=O)N1Cc1ccc([N+](=O)[O-])cc1 | 9.44
51 | Cc1c(C(=O)N2CCN(S(C)(=O)=O)CC2)oc2ccccc12 | 9.58
52 | COc1ccc(/C=N/NC(=O)COc2ccc3ccccc3c2)c(C(=O)O)c1OC | 11.2
53 | COc1ccc(-n2c(NC(=O)c3ccco3)c(C#N)c3nc4ccccc4nc32)cc1 | 18
54 | CC(C)(C)NC(=O)CN(C(=O)CCC(=O)Nc1nccs1)c1ccc2c(c1)OCCO2 | 9.55
55 | CCNC(=O)c1ccccc1CCc1ccccc1 | 4.92
56 | Cc1ccc(/C=N/NC(=O)CN(Cc2ccccc2)S(=O)(=O)c2ccc3c(c2)OCCO3)cc1 | 15.4
57 | O=C(NCCCN1CCCC1=O)c1cc2c(s1)CCCCC2 | 7.34
58 | Cc1ccc(S(=O)(=O)n2nc(OC(=O)C(C)(C)C)cc2N)cc1 | 8.94
59 | NS(=O)(=O)c1cccc(NC(=O)COc2ncnc3c2cnn3-c2ccccc2)c1 | 5.93
60 | CCCCC(NC(C)=O)c1nc2ccccc2n1CCC (centres unmarked) | -2.31
61 | c1ccc(N/N=C(\Cc2ncc[nH]2)c2ccccc2)cc1 | 7.52
62 | CC(=O)c1ccc(NC(=O)c2ccc3c(c2)C(=O)N(c2ccccn2)C3=O)cc1 | 14.7
63 | CC1CCC(NC(=O)COC(=O)CNC(=O)c2ccc3ccccc3c2)CC1 (centres unmarked) | 9.36
64 | C=CCNCC#CCOc1ccc(OC)cc1.O=C(O)C(=O)O | -0.956
65 | COc1ccc(N2CC(C)Cn3c2nc2c3c(=O)n(CCN3CCOCC3)c(=O)n2C)cc1 (centres unmarked) | 2.17
66 | Cc1ccc(S(=O)(=O)N2CCN(C(=O)Cc3sc(C)nc3-c3ccc(F)cc3)CC2)c(C)c1 | 6.34
67 | CCOc1cccc(CNn2cnnc2)c1OCc1ccccc1Cl | 3.2
68 | COc1ccc(NC(=O)CC2C(=O)N(c3ccc(F)cc3)C(=S)N2NC(=O)c2ccc(Cl)cc2)cc1 (centres unmarked) | 3.09
69 | COc1ccc(C(C)NC(=O)C2CCCC2)cc1OC (centres unmarked) | 13.4

Row | SMILES | hERG current change (%, negative = inhibition) at 1uM [%]
70 | COCCn1c(SCC(=O)c2ccc(F)cc2)nnc1C(C)C | 8.05
71 | O=C(Cn1c(=O)sc2ccccc21)Nc1ccc2c(c1)OCCO2 | 15
72 | CC(=O)c1cccc(NC(=O)CSc2n[nH]c(-c3ccncc3)n2)c1 | 15
73 | CC1CCCC/C1=N\Nc1ccc(S(N)(=O)=O)cc1[N+](=O)[O-] (centres unmarked) | 15
74 | CSc1ccc(C(=S)N2CCCCCC2)cc1 | 12.2
75 | Nc1ccc(S(=O)(=O)Nc2ccc(S(N)(=O)=O)cc2)cc1 | 10.8
76 | Nc1nc(SCc2nc3sc4c(c3c(=O)[nH]2)CCCC4)n[nH]1 | 7.65
77 | O=c1c2ccc([N+](=O)[O-])c3cccc(c32)c2nc3ccccc3n12 | 11.9
78 | CC(=NCCCN1CCCCC1)c1c(O)n(Cc2ccccc2)c(=O)[nH]c1=O | -25.8
79 | Cc1cccc(CS(=O)(=O)Cc2ccc(C(=O)NCc3ccco3)o2)c1 | 3.38
80 | O=C(Cn1cc(C(F)(F)F)ccc1=O)N/N=C/c1ccccc1O | 1.57
81 | Cc1cc(C(=O)N/N=C/c2ccc(N3CCOCC3)cc2)c(C)o1 | 11.3
82 | CCCCn1c(=O)c(C(=O)Nc2ccccc2F)c(O)c2ccccc21 | 13.8
83 | CCOc1ccc(S(=O)(=O)NCCC(=O)N2CCN(Cc3ccccc3)CC2)cc1 | -28.6
84 | COc1cccc(C(=O)OCc2ccccc2C#N)c1O | 16.7
85 | COCCN(C(=O)CCC(=O)Nc1cc(C)on1)C(C(=O)NC1CCCC1)c1ccc(C)cc1 (centres unmarked) | 6.94
86 | N#Cc1ccccc1OCC(=O)Nc1nnc(C2CC2)s1 | 3.71
87 | O=C1OC(c2ccccc2)=C/C1=C/N1CCCCC1 | 5.76
88 | CCC(C)NC(=O)CSc1nnc(-c2cc(-c3ccc(C)cc3)nc3ccccc23)n1N (centres unmarked) | 12.4
89 | O=C(Nc1cccc(C(F)(F)F)c1)C1C2CC3OC(=O)C1C3C2 (centres unmarked) | 0.0006
